From publication PMC4336329 (PLoS ONE, 2015)
The whole screen tested about 310,000 compounds, of which about 14,000 (4.5%) showed an effect of 50% or more. Effects have a minus sign here. This is one part of the list.

Each molecule was assayed against human ether-à-go-go-related gene (hERG) potassium channel (human, UniProt Q12809) (assay: primary screen, population patch clamp on CHO cells stably expressing hERG).
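Also: peak tail current of the secondary pulse compared with the same well before compound.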

human ether-à-go-go-related gene (hERG) potassium channel, sequence (Q12809 whole entry, looked up): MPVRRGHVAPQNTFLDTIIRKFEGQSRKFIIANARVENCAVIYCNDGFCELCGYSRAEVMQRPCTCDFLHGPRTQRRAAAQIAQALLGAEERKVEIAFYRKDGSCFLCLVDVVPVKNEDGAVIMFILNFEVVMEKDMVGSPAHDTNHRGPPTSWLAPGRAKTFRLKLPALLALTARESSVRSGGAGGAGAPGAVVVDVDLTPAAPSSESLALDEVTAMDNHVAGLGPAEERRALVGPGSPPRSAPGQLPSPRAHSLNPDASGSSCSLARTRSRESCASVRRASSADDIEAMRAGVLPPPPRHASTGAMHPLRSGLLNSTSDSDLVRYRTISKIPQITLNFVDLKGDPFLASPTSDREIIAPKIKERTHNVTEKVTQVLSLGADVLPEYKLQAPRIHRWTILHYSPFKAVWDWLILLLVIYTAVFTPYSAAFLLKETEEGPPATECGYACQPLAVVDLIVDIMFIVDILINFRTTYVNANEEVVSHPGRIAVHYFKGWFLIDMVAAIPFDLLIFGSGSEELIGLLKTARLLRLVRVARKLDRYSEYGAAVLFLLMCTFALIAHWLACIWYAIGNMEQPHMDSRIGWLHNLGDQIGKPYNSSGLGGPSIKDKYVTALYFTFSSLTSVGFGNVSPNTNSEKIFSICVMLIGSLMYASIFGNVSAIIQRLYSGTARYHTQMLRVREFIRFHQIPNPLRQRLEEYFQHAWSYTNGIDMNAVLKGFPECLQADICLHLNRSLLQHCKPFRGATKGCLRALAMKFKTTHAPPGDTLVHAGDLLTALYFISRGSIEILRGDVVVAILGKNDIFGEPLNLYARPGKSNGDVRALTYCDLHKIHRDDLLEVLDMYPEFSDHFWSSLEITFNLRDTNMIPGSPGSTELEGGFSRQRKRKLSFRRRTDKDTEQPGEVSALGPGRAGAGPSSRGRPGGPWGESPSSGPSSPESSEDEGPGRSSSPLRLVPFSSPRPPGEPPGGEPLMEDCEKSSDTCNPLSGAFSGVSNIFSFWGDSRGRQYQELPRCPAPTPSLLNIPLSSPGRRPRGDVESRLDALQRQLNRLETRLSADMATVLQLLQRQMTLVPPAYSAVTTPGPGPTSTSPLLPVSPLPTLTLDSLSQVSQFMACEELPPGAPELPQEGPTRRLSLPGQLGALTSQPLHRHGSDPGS

SMILES | hERG current change (%, negative = inhibition) at 10uM [%]
CCC1=C(OC(=O)N(CC)CC)N2C(=O)OC(=NCC3CC3)[C@]2(Cc2ccccc2)[C@H]2C1=CC[C@H]1C(=O)N(CC)C(=O)[C@H]12 | -23.4
O=C(NC1CC2CCCC(C1)N2)c1ccccc1 (stereo not shown) | 16.6
Cc1cccc2sc(N(CCN(C)C)C(=O)c3cc(Cl)sc3Cl)nc12.Cl | -22.7
O=C1/C(=C\c2ccccc2)CCc2c1[nH]c1ccccc21 | 9.57
Cc1cc(C)n(C(=O)CNC(=O)Cc2ccccc2)n1 | 6.37
COC(=O)c1cccc(COC(=O)c2ccc(N(C)C)cc2)c1 | -3.98
CCc1ccc(C2C3=C(CC(C)(C)CC3=O)OC3=C2C(=O)CC(C)(C)C3)cc1 | 1.57
COC(=O)CCNC(=O)Cc1c(C)n(C(=O)c2ccc(Cl)cc2)c2ccc(OC)cc12 | -17
COc1ccc(CNC(=O)C(C)OC(=O)CN2C(=O)COc3ccccc32)cc1 (stereo not shown) | -10
O=C(NCCCN1CCCC(O)C1)c1cc(COc2ccc(F)cc2F)on1 (stereo not shown) | -4.32
O=c1[nH]n(Cc2ccccc2)c(=O)c2ccccc12 | -1.48
O=C(NCc1ccc(F)cc1)c1cc(S(=O)(=O)N2CCCCC2)c[nH]1 | -3.62
CCOC(=O)/C(C#N)=C1/C=Nc2ccccc2N1 | -5.77
O=C(/C=C/c1ccccc1)N/C(=C/c1ccccc1)C(=O)N1CCCCC1 | -58.7
CCn1c(=S)sc2c(=O)n(CC(=O)Nc3ccc(OC)cc3)c(C)nc21 | 5.68
CNC(=O)CC1C(=O)N(C)C(=S)N1NC(=O)c1ccc(Cl)cc1 (stereo not shown) | -2.06
Cc1nn(-c2ccccc2)c(C)c1C(=O)OCC(=O)Nc1cccc(S(N)(=O)=O)c1 | -4.99
COc1ccccc1CN1CCN(C(=O)c2cccc3ccccc23)CC1 | 3.48
O=[N+]([O-])c1ccc(N2CCCC2)c(F)c1Br | 2.16
CCCN(CCC)S(=O)(=O)c1ccc2c(c1)CCCN2C(C)=O | -47.2
NC(=O)COC(=O)c1sc2cc(F)ccc2c1Cl | -0.0484
COc1ccc(CC(=O)NCc2nnc(SCC(=O)Nc3ccc(OC)cc3)n2C)cc1 | 4.08

SMILES | hERG current change (%, negative = inhibition) at 10uM [%]
COc1ccc(-c2cc3c(=O)n(CC(=O)N4CCN(C)CC4)ncn3n2)cc1 | -18.8
CCc1ccc2nc(N(CCCN(C)C)C(=O)c3ccc(S(=O)(=O)N4CCCC4)cc3)sc2c1.Cl | -67.7
C/C=C/c1ccc(OCCN2CCc3ccccc3C2)c(OC)c1 | -77.7
O=C(NCCC1CCCCN1S(=O)(=O)c1ccc(F)cc1)C(=O)Nc1ccccc1 (stereo not shown) | -25.6
Cc1ccc(NC(=O)CN(C)C(=O)c2cccc(S(=O)(=O)NCc3ccccc3)c2)cc1 | -26.5
Cc1cccc(C(=O)N2CCNC(=O)C2CC(=O)Nc2cccc(Cl)c2)c1 (stereo not shown) | -1.71
CCOc1ccc(/C=N/NC(=O)CN2CCCCCCC2)cc1 | -63
Cc1ccc(Cc2cnc(NC(=O)/C(C#N)=C/c3ccc(-c4cccc([N+](=O)[O-])c4)o3)s2)cc1 | 6.05
CCC(=O)Nc1c2c(nn1-c1ccc(OC)cc1)CS(=O)C2 (stereo not shown) | 9.94
O=C(CNc1ccc2ccccc2c1)N/N=C/c1ccc([N+](=O)[O-])o1 | 1.03
COc1ccc(C23CC4CC(CC(C(=O)O)(C4)C2)C3)c(F)c1 | 13.7
O=c1[nH]nc(-c2ccc(NCCO)c([N+](=O)[O-])c2)c2ccccc12 | 31.9
CC(C)=CCOc1ccc([C@@H]2COc3c(ccc4c3C=CC(C)(C)O4)C2)c(O)c1 | 19.5
Cc1nc(-c2ccc(-n3nncc3-c3ccco3)cc2)cs1 | -34.2
COC(=O)c1ccc(COC(=O)C2CCN(S(=O)(=O)c3ccc(C)c(C)c3)CC2)o1 | 9.51
O=C(NCC1CCCN1S(=O)(=O)c1ccccc1)c1cccc(Cl)c1 (stereo not shown) | -40.4
COc1ccccc1NC(=O)c1ccc(CS(=O)(=O)c2ccc(C)cc2)cc1 | 4.5
Cc1ccc(NC2=NC(c3ccc(F)cc3)n3c(nc(C)cc3=O)N2)c(C)c1 (stereo not shown) | 21.8
CN(C)CCN1C(=O)C2C3C=CC(C3)C2C1=O (stereo not shown) | 20.6
Cc1ccc(NC(=S)N2CCn3cccc3C2c2cccnc2)cc1 (stereo not shown) | -37.3
COc1ccc(N/N=C(C)/C(=N/O)C(=O)Nc2ccccc2)cc1 | -12.1
